{"source": "paper PMC4336329", "about": "(PLoS ONE, 2015)", "note": "About 2,200 (0.71%) of roughly 310,000 compounds showed an effect of 50% or more. Effects have a minus sign here. This is one part of the list."}
{"target": "human ether-à-go-go-related gene (hERG) potassium channel (human, UniProt Q12809)", "sequence (Q12809 whole entry, looked up)": "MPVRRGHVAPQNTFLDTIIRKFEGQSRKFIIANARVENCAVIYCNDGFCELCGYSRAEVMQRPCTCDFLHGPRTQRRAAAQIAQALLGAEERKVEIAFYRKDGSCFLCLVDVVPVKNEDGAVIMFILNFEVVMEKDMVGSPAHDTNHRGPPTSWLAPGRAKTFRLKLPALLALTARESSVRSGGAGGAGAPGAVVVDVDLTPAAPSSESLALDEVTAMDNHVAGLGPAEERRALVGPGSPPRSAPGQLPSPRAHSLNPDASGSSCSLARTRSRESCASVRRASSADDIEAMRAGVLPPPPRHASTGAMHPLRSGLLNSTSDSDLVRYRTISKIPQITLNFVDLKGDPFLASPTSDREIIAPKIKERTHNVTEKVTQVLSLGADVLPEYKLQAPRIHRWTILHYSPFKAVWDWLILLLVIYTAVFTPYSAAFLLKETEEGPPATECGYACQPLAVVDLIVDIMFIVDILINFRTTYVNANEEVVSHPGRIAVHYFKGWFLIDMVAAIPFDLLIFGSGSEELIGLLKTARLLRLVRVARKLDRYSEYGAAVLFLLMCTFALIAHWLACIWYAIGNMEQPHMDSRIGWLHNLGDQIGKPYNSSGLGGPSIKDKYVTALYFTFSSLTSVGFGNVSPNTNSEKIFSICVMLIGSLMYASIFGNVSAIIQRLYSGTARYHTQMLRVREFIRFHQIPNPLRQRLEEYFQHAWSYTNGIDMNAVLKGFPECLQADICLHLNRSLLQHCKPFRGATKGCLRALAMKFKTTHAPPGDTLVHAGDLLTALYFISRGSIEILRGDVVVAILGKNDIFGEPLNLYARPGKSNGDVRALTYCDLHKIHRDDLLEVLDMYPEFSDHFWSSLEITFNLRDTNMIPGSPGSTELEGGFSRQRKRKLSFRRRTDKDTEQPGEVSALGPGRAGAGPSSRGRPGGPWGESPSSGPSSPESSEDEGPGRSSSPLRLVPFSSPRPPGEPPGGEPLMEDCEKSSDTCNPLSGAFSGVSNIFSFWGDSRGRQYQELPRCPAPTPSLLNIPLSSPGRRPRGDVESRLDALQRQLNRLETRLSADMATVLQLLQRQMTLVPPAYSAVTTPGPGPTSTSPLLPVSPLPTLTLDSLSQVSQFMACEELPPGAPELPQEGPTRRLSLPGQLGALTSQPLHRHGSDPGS", "experiment": "primary screen, population patch clamp on CHO cells stably expressing hERG", "units": {"hERG current change (%, negative = inhibition) at 1uM": "%"}}
{"smiles": "COc1cccc(N2CCN(C(=O)CC(NC(=O)c3ccccc3)c3ccccc3)CC2)c1", "note": "(stereo not drawn)", "hERG current change (%, negative = inhibition) at 1uM": -27}
{"smiles": "O=C(CCS(=O)(=O)c1ccc2c(c1)NC(=O)CS2)NCc1cccs1", "hERG current change (%, negative = inhibition) at 1uM": -22.1}
{"smiles": "C#CC1(NC(=O)NS(=O)(=O)c2ccc(C)cc2)CCCCC1", "hERG current change (%, negative = inhibition) at 1uM": 10.4}
{"smiles": "CCCC(=O)N1CCCC(C(=O)c2cccc(OC(C)C)c2)C1", "note": "(stereo not drawn)", "hERG current change (%, negative = inhibition) at 1uM": 9.81}
{"smiles": "COC(=O)c1cccc(N2C(=O)c3cccnc3C2=O)c1", "hERG current change (%, negative = inhibition) at 1uM": 12}
{"smiles": "COC(=O)Nc1nnc(CC(=O)Nc2ccccc2C)s1", "hERG current change (%, negative = inhibition) at 1uM": -1.45}
{"smiles": "CN(C(=O)CSc1nnc(-c2ccncc2)n1C)C1CCS(=O)(=O)C1", "note": "(stereo not drawn)", "hERG current change (%, negative = inhibition) at 1uM": 7.59}
{"smiles": "COc1ccc(Cl)cc1NC(=O)CCN1CCN(Cc2ccccc2)CC1", "hERG current change (%, negative = inhibition) at 1uM": -13.9}
{"smiles": "COc1ccc(NC(=O)CSc2nnc(-c3ccncc3)n2C)cc1", "hERG current change (%, negative = inhibition) at 1uM": 20.4}
{"smiles": "Cc1c(CCC(=O)NCCCCCC(=O)O)c(=O)oc2c(C)c3oc4c(c3cc12)CCCC4", "hERG current change (%, negative = inhibition) at 1uM": 15.3}
{"smiles": "Cc1ccc(NC(=O)CN(C)S(=O)(=O)c2cccs2)cc1C", "hERG current change (%, negative = inhibition) at 1uM": 8.82}
{"smiles": "O=C(c1ccc2c(=O)n3c(nc2c1)CCCCC3)N1CCN(c2cccc(Cl)c2)CC1", "hERG current change (%, negative = inhibition) at 1uM": -2.75}
{"smiles": "O=C(C/C=N\\OCc1ccc([N+](=O)[O-])cc1)Nc1ccc(F)cc1F", "hERG current change (%, negative = inhibition) at 1uM": 5.23}
{"smiles": "COc1ccc(C(=O)O)cc1NC(=S)NC(=O)Cc1ccc(Cl)cc1", "hERG current change (%, negative = inhibition) at 1uM": 12.9}
{"smiles": "CN(C)c1nc(N)nc(Cn2nnc(-c3ccc(C(F)(F)F)cc3)n2)n1", "hERG current change (%, negative = inhibition) at 1uM": 22.3}
{"smiles": "CN(C)/N=C/c1c(O)ccc2ccccc12", "hERG current change (%, negative = inhibition) at 1uM": 13}
{"smiles": "Cc1cc(C)cc(OCC(=O)NNC(=O)c2ccoc2C)c1", "hERG current change (%, negative = inhibition) at 1uM": 9.44}
{"smiles": "Cc1ccc2[nH]c(C(=O)N/N=C/c3ccccc3O)c(C)c2c1", "hERG current change (%, negative = inhibition) at 1uM": 11.3}
{"smiles": "Cc1cc(C)cc(-n2c(C)nc3cc(C(=O)O)ccc32)c1", "hERG current change (%, negative = inhibition) at 1uM": 14.4}
{"smiles": "O=C(Nc1ncc(C(F)(F)F)cc1Cl)C1COc2ccccc2O1", "note": "(stereo not drawn)", "hERG current change (%, negative = inhibition) at 1uM": 14.5}
{"smiles": "CCCCN(C(=O)CCC(=O)Nc1cc(C)on1)C(C(=O)NC(C)(C)CC)c1cccc(OC)c1OC", "note": "(stereo not drawn)", "hERG current change (%, negative = inhibition) at 1uM": 6.77}
{"smiles": "Cc1ccc(S(=O)(=O)NCC(=O)OCC(=O)Nc2ccc3c(c2)OCCO3)cc1", "hERG current change (%, negative = inhibition) at 1uM": 2.12}
{"smiles": "COCCOC1CCN(C(=O)C2CCC(=O)N(CCc3cccc(F)c3)C2)CC1", "note": "(stereo not drawn)", "hERG current change (%, negative = inhibition) at 1uM": 8.72}
{"smiles": "CS/C(N)=N/N=C/c1ccc([N+](=O)[O-])cc1.I", "hERG current change (%, negative = inhibition) at 1uM": -19.7}
